Measurements: the supplement of paper PMC8728848
This is one part of the list.

Experiments:
Assay in all cases: glycan array binding signal (z-score within array); higher = stronger binding
Settings in all cases: glycan notation: IUPAC condensed, linker removed; mutation: F355A
[1] = target: Fuc(a1-3)[GalNAc(b1-4)]GlcNAc
How it was run: (§1)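 Columns mapping to the same glycan were averaged after glycan names were converted to IUPAC-condensed notation. The data come from 3228 arrays in the Consortium for Functional Glycomics database, limited to those with an available protein sequence. Binding is reported as a within-array Z-score averaged across arrays of one protein sequence and across linkers.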

Fuc(a1-4)GlcNAc = target: Fuc(a1-4)GlcNAc
How it was run: as §1

Fuc(b1-3)GlcNAc = target: Fuc(b1-3)GlcNAc
How it was run: as §1

Gal(a1-2)Gal = target: Gal(a1-2)Gal
How it was run: as §1

Gal(a1-3)Gal = target: Gal(a1-3)Gal
How it was run: as §1

Gal(a1-3)Gal(b1-3)GlcNAc = target: Gal(a1-3)Gal(b1-3)GlcNAc
How it was run: as §1

Gal(a1-3)Gal(b1-4)Glc = target: Gal(a1-3)Gal(b1-4)Glc
How it was run: as §1

Gal(a1-3)Gal(b1-4)GlcNAc = target: Gal(a1-3)Gal(b1-4)GlcNAc
How it was run: as §1

[2] = target: Gal(a1-3)Gal(b1-4)[Fuc(a1-3)]GlcNAc
How it was run: as §1

Gal(a1-3)GalNAc = target: Gal(a1-3)GalNAc
How it was run: as §1

[3] = target: Gal(a1-3)[Gal(a1-4)]Gal(b1-4)GlcNAc
How it was run: as §1

Gal(a1-4)Gal(b1-4)Glc = target: Gal(a1-4)Gal(b1-4)Glc
How it was run: as §1

Gal(a1-4)Gal(b1-4)GlcNAc = target: Gal(a1-4)Gal(b1-4)GlcNAc
How it was run: as §1

Gal(a1-4)GlcNAc = target: Gal(a1-4)GlcNAc
How it was run: as §1

Gal(a1-6)Glc = target: Gal(a1-6)Glc
How it was run: as §1

Gal(b1-2)Gal = target: Gal(b1-2)Gal
How it was run: as §1

Gal(b1-3)Gal = target: Gal(b1-3)Gal
How it was run: as §1

Gal(b1-3)Gal(b1-4)GlcNAc = target: Gal(b1-3)Gal(b1-4)GlcNAc
How it was run: as §1

Gal(b1-3)GalNAc = target: Gal(b1-3)GalNAc
How it was run: as §1

[4] = target: Gal(b1-3)GalNAc(b1-3)Gal(a1-4)Gal(b1-4)Glc
How it was run: as §1

[5] = target: Gal(b1-3)GalNAc(b1-4)Gal(b1-4)Glc
How it was run: as §1

[6] = target: Gal(b1-3)GalNAc(b1-4)[Neu5Ac(a2-3)]Gal(b1-4)Glc
How it was run: as §1

Gal(b1-3)GlcNAc = target: Gal(b1-3)GlcNAc
How it was run: as §1

[7] = target: Gal(b1-3)GlcNAc(b1-2)Man(a1-3)[Gal(b1-3)GlcNAc(b1-2)Man(a1-6)]Man(b1-4)GlcNAc(b1-4)GlcNAc
How it was run: as §1

[8] = target: Gal(b1-3)GlcNAc(b1-3)Gal(b1-3)GlcNAc
How it was run: as §1

[9] = target: Gal(b1-3)GlcNAc(b1-3)Gal(b1-4)Glc
How it was run: as §1

[10] = target: Gal(b1-3)GlcNAc(b1-3)Gal(b1-4)GlcNAc
How it was run: as §1

[11] = target: Gal(b1-3)[Fuc(a1-4)]GlcNAc
How it was run: as §1

[12] = target: Gal(b1-3)[Fuc(a1-4)]GlcNAc(b1-3)Gal(b1-3)[Fuc(a1-4)]GlcNAc
How it was run: as §1

[13] = target: Gal(b1-3)[Fuc(a1-4)]GlcNAc(b1-3)Gal(b1-4)GlcNAc
How it was run: as §1

[14] = target: Gal(b1-3)[Fuc(a1-4)]GlcNAc(b1-3)Gal(b1-4)[Fuc(a1-3)]GlcNAc
How it was run: as §1

[15] = target: Gal(b1-3)[GlcNAc(b1-6)]GalNAc
How it was run: as §1

[16] = target: Gal(b1-3)[Neu5Ac(a2-6)]GalNAc
How it was run: as §1

[17] = target: Gal(b1-3)[Neu5Ac(a2-6)]GlcNAc(b1-6)Gal(b1-4)Glc
How it was run: as §1

[18] = target: Gal(b1-3)[Neu5Ac(b2-6)]GalNAc
How it was run: as §1

[19] = target: Gal(b1-4)GalNAc(a1-3)[Fuc(a1-2)]Gal(b1-4)GlcNAc
How it was run: as §1

[20] = target: Gal(b1-4)GalNAc(b1-3)[Fuc(a1-2)]Gal(b1-4)GlcNAc
How it was run: as §1

Gal(b1-4)Glc = target: Gal(b1-4)Glc
How it was run: as §1

Gal(b1-4)Glc6S = target: Gal(b1-4)Glc6S
How it was run: as §1

Gal(b1-4)GlcNAc = target: Gal(b1-4)GlcNAc
How it was run: as §1

[21] = target: Gal(b1-4)GlcNAc(a1-6)Gal(b1-4)GlcNAc
How it was run: as §1

[22] = target: Gal(b1-4)GlcNAc(b1-2)Man(a1-3)[Gal(b1-4)GlcNAc(b1-2)Man(a1-6)]Man(b1-4)GlcNAc(b1-4)GlcNAc
How it was run: as §1

[23] = target: Gal(b1-4)GlcNAc(b1-3)Gal(b1-3)GlcNAc
How it was run: as §1

[24] = target: Gal(b1-4)GlcNAc(b1-3)Gal(b1-4)Glc
How it was run: as §1

[25] = target: Gal(b1-4)GlcNAc(b1-3)Gal(b1-4)GlcNAc
How it was run: as §1

B1: Surfactant Protein D (Human); Neck + Carbohydrate Recognition Domain (NCRD) (Homo sapiens) (protein)
chain: MLLFLLSALVLLTQPLGYLEAEMKTYSHRTMPSACTLVMCSSVESGLPGRDRDGREGPRGEKGDPGLPGAAGQAGMPGQAGPVGPKGDNGSVGEPGPKGDTGPSGPPGPPGVPGPAGREGALGKQGNIGPQGKPGPKGEAGPKGEVGAPGMQGSAGARGLAGPKGERGVPGERGVPGNTGAAGSAGAMGPQGSPGARGPPGLKGDKGIPGDKGAKGESGLPDVASLRQQVEALQGQVQHLQAAFSQYKKVELFPNGQSVGEKIFKTAQFVKPFTEAQLLCTQAGGQLASPRSAAENAALQQLVVAKNEAAFLSMTDSKTEGKFTYPTGESLVYSNWAPGEPNDDGGSEDCVEIFTNGKWNDRACGEKRLVVCEA
With B1 the “glycan array binding signal (z-score)” value [1] was -0.095, the “glycan array binding signal (z-score)” value (Fuc(a1-4)GlcNAc) was -0.143 and the “glycan array binding signal (z-score)” value (Fuc(b1-3)GlcNAc) was -0.163. The “glycan array binding signal (z-score)” value (Gal(a1-2)Gal) was -0.16, the “glycan array binding signal (z-score)” value (Gal(a1-3)Gal) was -0.149 and the “glycan array binding signal (z-score)” value (Gal(a1-3)Gal(b1-3)GlcNAc) was -0.144. The “glycan array binding signal (z-score)” value (Gal(a1-3)Gal(b1-4)Glc) was -0.099, the “glycan array binding signal (z-score)” value (Gal(a1-3)Gal(b1-4)GlcNAc) was -0.139 and the “glycan array binding signal (z-score)” value [2] was -0.137. The “glycan array binding signal (z-score)” value (Gal(a1-3)GalNAc) was -0.129, the “glycan array binding signal (z-score)” value [3] was -0.151 and the “glycan array binding signal (z-score)” value (Gal(a1-4)Gal(b1-4)Glc) was -0.114. The “glycan array binding signal (z-score)” value (Gal(a1-4)Gal(b1-4)GlcNAc) was -0.094, the “glycan array binding signal (z-score)” value (Gal(a1-4)GlcNAc) was -0.123 and the “glycan array binding signal (z-score)” value (Gal(a1-6)Glc) was -0.152. The “glycan array binding signal (z-score)” value (Gal(b1-2)Gal) was -0.153, the “glycan array binding signal (z-score)” value (Gal(b1-3)Gal) was -0.142 and the “glycan array binding signal (z-score)” value (Gal(b1-3)Gal(b1-4)GlcNAc) was -0.102. For the same binder, the “glycan array binding signal (z-score)” value (Gal(b1-3)GalNAc) was -0.131, the “glycan array binding signal (z-score)” value [4] was -0.144 and the “glycan array binding signal (z-score)” value [5] was -0.123. For the same binder, the “glycan array binding signal (z-score)” value [6] was -0.145, the “glycan array binding signal (z-score)” value (Gal(b1-3)GlcNAc) was -0.135 and the “glycan array binding signal (z-score)” value [7] was -0.13. The “glycan array binding signal (z-score)” value [8] was -0.099, the “glycan array binding signal (z-score)” value [9] was -0.12 and the “glycan array binding signal (z-score)” value [10] was -0.15. The “glycan array binding signal (z-score)” value [11] was -0.138, the “glycan array binding signal (z-score)” value [12] was -0.129 and the “glycan array binding signal (z-score)” value [13] was -0.127. For the same binder, the “glycan array binding signal (z-score)” value [14] was -0.12, the “glycan array binding signal (z-score)” value [15] was -0.103 and the “glycan array binding signal (z-score)” value [16] was -0.129. The “glycan array binding signal (z-score)” value [17] was -0.112, the “glycan array binding signal (z-score)” value [18] was -0.147 and the “glycan array binding signal (z-score)” value [19] was -0.129. The “glycan array binding signal (z-score)” value [20] was -0.163, the “glycan array binding signal (z-score)” value (Gal(b1-4)Glc) was -0.139 and the “glycan array binding signal (z-score)” value (Gal(b1-4)Glc6S) was -0.132. The “glycan array binding signal (z-score)” value (Gal(b1-4)GlcNAc) was -0.124, the “glycan array binding signal (z-score)” value [21] was -0.155 and the “glycan array binding signal (z-score)” value [22] was -0.104. The “glycan array binding signal (z-score)” value [23] was -0.086, the “glycan array binding signal (z-score)” value [24] was -0.137 and the “glycan array binding signal (z-score)” value [25] was -0.149.
